Source: publication PMC6919601, “Identification of Plasmodium dipeptidyl aminopeptidase allosteric inhibitors by high throughput screening” (PLoS ONE, 2019)
The whole screen tested about 110,000 compounds, of which about 230 (0.21%) showed an effect of 50% or more. Some of the results follow.

Target: DPAP1 (Plasmodium falciparum, UniProt Q8IIJ9)
Assay: primary screen, percent inhibition; read by cleavage of a fluorogenic dipeptide substrate; higher = more effect of the substance
Design: species or system P. falciparum D10 trophozoite lysates; single well
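Also: 30 min substrate incubation versus DMSO and 10 µM JCP410 controls.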

Sequence of DPAP1 (Q8IIJ9 whole entry, looked up): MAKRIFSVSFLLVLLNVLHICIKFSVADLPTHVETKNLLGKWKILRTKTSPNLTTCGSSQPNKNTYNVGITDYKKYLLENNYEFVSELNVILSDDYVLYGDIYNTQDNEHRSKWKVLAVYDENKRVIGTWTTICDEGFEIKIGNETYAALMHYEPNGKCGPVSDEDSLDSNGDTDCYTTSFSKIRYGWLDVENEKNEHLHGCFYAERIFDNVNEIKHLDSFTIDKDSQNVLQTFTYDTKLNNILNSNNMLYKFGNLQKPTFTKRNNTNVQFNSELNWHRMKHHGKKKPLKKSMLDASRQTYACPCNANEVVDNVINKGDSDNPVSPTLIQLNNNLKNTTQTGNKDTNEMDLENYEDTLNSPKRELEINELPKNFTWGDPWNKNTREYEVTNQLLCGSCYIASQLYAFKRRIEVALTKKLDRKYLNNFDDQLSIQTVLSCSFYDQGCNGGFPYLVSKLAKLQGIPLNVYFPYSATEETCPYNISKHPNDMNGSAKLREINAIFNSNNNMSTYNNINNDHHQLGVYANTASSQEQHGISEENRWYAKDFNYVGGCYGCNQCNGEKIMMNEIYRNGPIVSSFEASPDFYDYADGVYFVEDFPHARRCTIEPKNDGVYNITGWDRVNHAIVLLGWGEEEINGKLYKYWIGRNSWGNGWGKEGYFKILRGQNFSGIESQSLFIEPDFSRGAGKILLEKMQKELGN

Structure (SMILES) | % Inhibition @ 10 uM
COc1cc(C2c3c(oc4ccccc4c3=O)C(=O)N2c2nccs2)cc(Br)c1O (stereo not shown) | 3.12%
C#CCSc1nc2c(c(=O)n1Cc1ccccc1)C1(CCCCC1)Cc1ccccc1-2 | 2.92%
COc1ccc(Cc2nnc3sc(/C=C/c4cccc(C(F)(F)F)c4)nn23)cc1 | -3.53%
CCCC1CCc2c(sc(NC(=O)c3ccc(F)cc3)c2C(N)=O)C1 (stereo not shown) | -8.18%
CC1(C)CC(=O)C2=C(C1)c1c(ccc3ccccc13)NC2c1ccccc1 (stereo not shown) | -0.736%
COc1ccc2cc3cc(C(=O)NCCCN4CCN(C)CC4)sc3nc2c1 | 1.22%
CCO/C(O)=C1\C(C)=Nc2nnnn2C1c1c[nH]c2ccccc12 (stereo not shown) | -1.81%
Cc1nn(C)c(C)c1NC(=O)C12CC3CC(CC(C3)C1)C2 | -1.02%
Nn1c(SCC(=O)Nc2nncs2)nnc1-c1cccnc1 | -1.24%
O=C(COc1ccc(Cl)cc1Br)Nc1ccc(S(=O)(=O)N2CCOCC2)cc1 | 1.57%
C=CCN1C(=O)C2(NC(CC)C3C(=O)N(c4ccc(Cl)cc4)C(=O)C32)c2ccccc21 (stereo not shown) | 3.53%
CCOC(=O)C1=CN(Cc2ccc(OC)cc2)C=C(C(=O)OCC)C1c1ccc(C)s1 | -3.23%
CC(C)C(NC1CCS(=O)(=O)C1)C(=O)O (stereo not shown) | 37.3%
Cc1cccc(NC(=O)C(O)c2ccccc2)c1 (stereo not shown) | 1.63%
COc1ccc(C(=O)NC2(C(F)(F)F)C(=O)Nc3c2c(=O)[nH]c(=O)n3-c2ccccc2)cc1 (stereo not shown) | -5.23%
Cc1cc2c(c(=O)o1)C(c1ccc(F)c(Br)c1)C(C#N)=C(N)O2 (stereo not shown) | 4.66%
CC(=O)Nc1ccc2c(c1)CCC(C)C2=O (stereo not shown) | 4.44%
CC1CCCCC1Nc1nc2ccccc2n2nnnc12 (stereo not shown) | -2.25%
CC(C)OCCCNC(=O)CCN1C(=O)c2ccccc2Sc2ncccc21 | -4.76%
CC1(C)COC(O)(C(F)(F)F)CC1=O (stereo not shown) | 4.82%
Cc1noc(NS(=O)(=O)c2ccc(NC(=O)COc3cc(Cl)ccc3Cl)cc2)c1C | 9.33%
CC(C)(C)NS(=O)(=O)c1ccc(OCC(=O)Nc2cc(C(F)(F)F)ccc2Cl)cc1 | 3.04%
CS(=O)(=O)N(CC(=O)N1CCCCCC1)c1ccccc1F | -8.67%
CC(C(=O)NCCCN1CCCC1=O)n1sc2ccccc2c1=O (stereo not shown) | -10.2%
OCCN1CCN(Cc2ccccc2Br)CC1 | -1.62%
COc1ccc(NC(=O)/C(=C/c2ccco2)NC(=O)c2ccc(Br)o2)cc1 | -2.68%

Structure (SMILES) | % Inhibition @ 10 uM
COc1cccc(CNCc2c(C(=O)O)n(Cc3ccc(F)cc3)c3cc(C)ccc23)c1 | 5.68%
O=C(O)c1ccccc1N/C=C/[N+](=O)[O-] | -0.128%
CC(CNC1CCN(Cc2ccccc2)CC1)c1ccccc1 (stereo not shown) | -0.446%
COc1ccc(C2=NN(CC(=O)NCCCN3CCCC3=O)C(=O)CC2)cc1 | -3.58%
CCOc1cc2c(cc1OCC)C(c1ccccc1)OC(=O)C2 (stereo not shown) | 0.0069%
COC(=O)/C=C1/SC(N2CCOCC2)=NC1=O | -0.386%
CN1CCN(C(=O)Nc2ccccc2)CC1 | -2.03%
O=S(=O)(c1ccc2ccccc2c1)N1CCSC1c1ccccc1 (stereo not shown) | -4.6%
COc1ccc(S(=O)(=O)NCc2ccc(C(=O)N3CCC(Cc4ccccc4)CC3)cc2)cc1 | -7.16%
Cc1nnc(SC2CCN(S(=O)(=O)c3cccc(C(F)(F)F)c3)CC2)s1 | -1.07%
Cc1cc2ccccc2c(=O)n1CC(=O)NCC(=O)N(C)C1CCCCC1 | 6.57%
Cc1ccc(N2CCN(S(=O)(=O)N3CCCCC3)CC2)c(C)c1 | 3.53%
CC(=O)NS(=O)(=O)c1ccc(NC(=O)COc2cc(C)ccc2C)cc1 | 1.84%
Nc1c(C(=O)NCCc2ccc(Cl)cc2)nnn1Cc1ccc(Br)cc1 | 0.813%
Cc1ccc(C(=O)Nc2ccc(Cl)cn2)cc1S(=O)(=O)N1CCCCC1 | -4.41%
O=C(O)c1ccc(N2C(=O)CC(Nc3ccc(Cl)cc3)C2=O)cc1 (stereo not shown) | -1.28%
O=C(O)c1cc(NC(=O)C(F)(F)F)cc(NC(=O)C(F)(F)F)c1 | -5.36%
O=C(c1ccc(Cn2c(SCc3ccccc3)nc3cccnc32)cc1)N1CCOCC1 | 9.02%
CC(C)OCCCn1c(=O)c2ccccc2n2c(CCC(=O)NCCc3ccccc3)nnc12 | 3.54%
CCOc1cc2c(cc1OCC)C(C(C)CC)NCC2 (stereo not shown) | -4.15%
CCOc1ccccc1N1CCN(Cc2cccc(F)c2)CC1 | 3.8%
Cc1nnc(N2CCC(C(=O)N3CCC(C)CC3)CC2)c2nn(-c3ccccc3)c(C)c12 | 2.58%
CCCN1CCC2(CC1)C(C#N)=C(N)Oc1c2sc2nc(C)cc(C)c12 | 3.05%
Cc1cc(C(=O)Nc2sc3c(c2C#N)CCCC3)no1 | 3.55%
Cc1cc(=O)n2nc(N3CCCC(C(=O)NCCN4CCOCC4)C3)sc2n1 (stereo not shown) | -3.79%
COc1cc(C2=NOC(C(=O)NCCc3ccccc3)C2)cc(OC)c1OC (stereo not shown) | -0.431%

Structure (SMILES) | % Inhibition @ 10 uM
CCSc1nc2c(c(=O)n1-c1ccc(C)cc1)C1(CCCCC1)Cc1ccccc1-2 | -3.44%
CN(C)CCCNC(=O)c1ccc2[nH]c3ccccc3c2c1 | 3.27%
COc1ccccc1OCCCn1cccc1/C=C1\C(=N)N2N=C(N3CCOCC3)SC2=NC1=O | 0.0579%
CN(C)c1ccc(NC(=O)Cc2ccc(F)cc2)cc1 | -0.872%
CSC1=C(C#N)C(c2ccco2)CC(=O)N1 (stereo not shown) | -0.636%
CCOC(=O)N1CCN(C(=O)CSc2nc(O)c3cnn(-c4ccc(C)cc4)c3n2)CC1 | 1.9%
COC(=O)C1=C(C)NC(=O)/C1=C\c1cc(C)n(-c2ccc(OC)c(Cl)c2)c1C | -0.0626%
O=C(c1ccccc1Cl)N(Cc1ccccc1)c1ccccn1 | 2.02%
CC1=C(C(=O)OCCOC(C)C)C(c2c(F)cccc2Cl)CC(=O)N1 (stereo not shown) | -1%
Cc1nc2c(C(=O)NCCC(C)C)cnn2c(O)c1Cl | -3.94%
COc1ccc(CC(=O)N2CCN(Cc3noc(CCC(=O)N4CCC(C)CC4)n3)CC2)cc1 | 1.41%
CCc1ccccc1NC(=O)c1ccccc1F | -3.71%
O=C(O)C1CC(=O)N(c2ccccc2O)C1 (stereo not shown) | 4.68%
Cc1cc(=O)n2nc(N3CCCC(C(=O)NCCN4CCCCCC4)C3)sc2n1 (stereo not shown) | 3%
c1ccc(C(NCCNC(c2ccccc2)c2ccccc2)c2ccccc2)cc1 | 1.13%
COCCNC(=O)c1ccc2c(c1)ncn2-c1ccc(F)cc1F | 2.8%
O=C(Nc1ccccc1C(=O)O)c1cccc(F)c1 | -1.79%
Cc1nc(S)c(C#N)c(-c2ccccc2)c1C(=O)Nc1ccccc1 | 34.5%
Oc1nc2c(s1)C(c1ccco1)C1C3CCC(C3)C1S2 (stereo not shown) | 2.63%
COc1ccc(S(=O)(=O)N(CC(=O)NC2CCCC2)c2ccccc2)cc1 | -5.13%
O=C(O)CCn1nnc2ccccc21 | -3.04%
Cc1nn(C)cc1C(=O)NCc1ccc(F)cc1 | -1.65%
CN1C(=O)N(C)C(NC(=O)N2CCOCC2)C1NC(=O)N1CCOCC1 (stereo not shown) | 10.8%
N#CC1=C(N)Oc2nc(O)nc(O)c2C1c1cccc(Cl)c1 (stereo not shown) | -0.366%
Cc1cc(O)n2cnnc2n1 | -2.4%
FC(F)(F)c1nc(Nc2cccc(Cl)c2)sc1-c1ccccc1 | -3.48%

Structure (SMILES) | % Inhibition @ 10 uM
O=S1(=O)C(c2ccccc2)=CC1c1ccccc1 (stereo not shown) | -1.08%
O=C1c2cccc3cccc(c23)N1CN1CCCCC1 | -1.22%
CCOC(=O)N1CCN(C(=O)CN2N=C(c3ccc(C)cc3)CCC2=O)CC1 | 0.514%
NC(=O)c1c(NC(=O)C2CC2)sc2c1CCCCCC2 | 5.39%
CN1C(=O)/C(=C\c2ccc(O)c(Br)c2)S/C1=N/c1ccccc1 | 9.72%
Cc1cc(C(F)(F)F)nc(NCCc2ccccc2)n1 | 6.66%
O=C(O)c1ccc2c(c1)C(=O)N(Cc1ccccc1)C2=O | 0.583%
c1ccc(N2CCN(Cc3ccsc3)CC2)cc1 | -5.5%
CCN(CC)CCCNC(=O)c1cc2nc(-c3ccccc3)cc(C(F)(F)F)n2n1 | -1.52%
COc1ccc(OC)c(CN2CCN(Cc3ccccc3Br)CC2)c1 | -8.37%
CC(=O)Nc1cccc2oc3ccccc3c12 | -4.16%
CCOc1cccc(OCC)c2c(C)[n+](CC3CCCO3)c(C)c1-2 (stereo not shown) | 2.35%
CCOC(=O)c1c(C)n(C)c2cc(Br)c3oc(O)nc3c12 | 0.847%
Cc1ccc(CC(=O)Nc2cc(C)on2)cc1 | 0.565%
CCOc1ccc(C2C=C(c3ccc(CC)cc3)Nc3nnnn32)cc1OC (stereo not shown) | 1.73%
COc1cc(N2CCCC2)c(OC)cc1/C=C1/NC(=O)N(c2cccc(Cl)c2)C1=O | -5.81%
c1ccc(CNc2ncnc3[nH]cnc23)cc1 | -4.27%
CCOc1ccc(-n2nc3ccc(NC(=O)c4ccc5c(c4)OCCO5)cc3n2)cc1 | 17.9%
COc1cccc(-c2nc(-c3ccccc3)no2)c1 | 4.57%
C=CCNc1cc(C)oc(=O)c1C(=O)CCC | 3%
CC(C)CC(=O)N1CCN(Cc2ccc(Cl)cc2)CC1 | 1.27%
Cc1ccc(CN(C(=O)c2oc3ccc(Cl)cc3c2C)C2CCS(=O)(=O)C2)o1 (stereo not shown) | 2.19%
COC(=O)Cn1cnc(=O)c(C#N)c1C | 4.08%
CC1CCCN(C(=O)Cc2noc3ccccc23)C1 (stereo not shown) | -0.205%
COc1ccc2[nH]cc(CCC(=O)O)c2c1 | -2.15%
